Test system: S. aureus USA300
Experiment: MRSA peritonitis model
Conditions: S. aureus USA300 IP, n=5; for animals surviving the length of the experiment: treated at 2 hours and 8 hours post-infection, compounds at the MTD, vancomycin 50 mg/kg

Row | Structure (SMILES) | animals surviving the length of the experiment | survival (treated at 2 hours and 8 hours post-infection at the MTD) [%]
1 | CN(CCC#N)c1ccc(/C=C/c2cc(-c3ccc(Br)cc3)cc(-c3ccc(Br)cc3)[n+]2C)cc1.[I-] [Compound 12c] | all animals | 
2 | CN[C@H](CC(C)C)C(=O)N[C@H]1C(=O)N[C@@H](CC(N)=O)C(=O)N[C@H]2C(=O)N[C@H]3C(=O)N[C@H](C(=O)N[C@H](C(=O)O)c4cc(O)cc(O)c4-c4cc3ccc4O)[C@H](O)c3ccc(c(Cl)c3)Oc3cc2cc(c3O[C@@H]2O[C@H](CO)[C@@H](O)[C@H](O)[C@H]2O[C@H]2C[C@](C)(N)[C@H](O)[C@H](C)O2)Oc2ccc(cc2Cl)[C@H]1O [vancomycin, reference compound] | all animals | 
3 | CC(C)C[n+]1c(/C=C/c2ccc(N(C)C)cc2)cc(-c2ccc(Br)cc2)cc1-c1ccc(Br)cc1.[I-] [EL-1] |  | 80

Source: US10941114B2, “Small molecule lipid II inhibitors” (University Of Maryland, Baltimore, priority 2015, dated 2021)
